In PubChem BioAssay AID485297 (National Center for Advancing Translational Sciences (NCATS), 2010):
The whole screen tested about 320,000 compounds, of which about 9,100 (2.8%) were called active. Inconclusive means that the source gave no clear call. Such entries were picked first, then a sample of the others. Calls come from the whole dose curve; as a rule, active = well fitted activation curve with a large enough effect; inconclusive = small, poorly fitted or top-dose-only effect; inactive = no such curve, though single readings can be large or run the other way. No potency is given beside an inconclusive call; the fits are too rough.

test: qHTS Assay for Rab9 Promoter Activators; settings: Huh7 Rab9 promoter-luciferase reporter, luminescence, 24 h; series mostly up to 9.22 µM; note: nearly all actives have a fitted effect of over 60% in size
How it was run: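 Huh7 cells stably carrying a Rab9 promoter-luciferase reporter, 1500 cells per well in OP-MEM I with 10% FBS, treated with compound 24 hours at 37C. Luciferase activity read by luminescence after 10 minutes with Amplite reagent.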
Potency is the fitted concentration of half-maximal effect; tags give direction and shape of the fitted curve.

| Structure (SMILES) | Potency |
| --- | --- |
| COc1cccc(/C=C2\SC(=S)N(CCC(=O)Nc3ccc(O)cc3)C2=O)c1 | inactive |
| CCCC(=O)Nc1nc2ccc(OC)cc2s1 | active: 1.78 µM |
| COc1cc(C(F)(F)F)ccc1C(=O)NCCc1ccco1 | inconclusive [activator, partial curve] |
| NC(=O)CSc1oc(-c2ccco2)nc1S(=O)(=O)c1ccc(Cl)cc1 | inconclusive [activator, single point] |
| COCCCNC(=S)NC(=O)c1ccc(C)cc1 | inconclusive [activator, single point] |
| COc1cccc(CN(C(=O)COc2ccc(C)cc2)C2CCS(=O)(=O)C2)c1 (stereo not given) | inactive |
| CC(C)CC(=O)Nc1cccc(-c2cn3ccsc3n2)c1 | inconclusive [activator, partial curve] |
| Nn1c(SCC(=O)N2CCCCCC2)nnc1-c1ccco1 | inconclusive [activator, single point] |
| CC1CCC/C(=C\Nc2ccc(C(=O)O)cc2)C1=O (stereo not given) | inconclusive [activator, full curve, poor fit] |
| COc1ccc(C(=O)Nc2nc(-c3ccccc3)c(C(C)=O)s2)c(OC)c1 | inconclusive [activator, single point] |
| COc1ccc(-c2cc(C(=O)N/N=C(\C)c3cccnc3)c3ccccc3n2)cc1 | inconclusive [activator, single point] |
| COc1ccc(Cc2noc(-c3ccc(C)cc3)n2)cc1 | inactive |
| Cc1nc(/C(N)=N/OC(=O)c2ccccc2Cl)c(C(F)(F)F)o1 | inconclusive [activator, single point] |
| Cc1cccc(Nc2ncnc3nc[nH]c23)c1 | inconclusive [activator, partial curve] |
| O=C(Nc1ccccc1)C1=C[C@@H](C2CCCCC2)C[C@@H](OCCCCO)O1 | inconclusive [activator, partial curve] |
| C/C(=N\NC(=O)c1cc2ccccc2cc1O)c1ccc(C)o1 | inconclusive [activator, partial curve] |
| CC(Sc1nnc(NC2CCCCC2)s1)C(=O)Nc1ccc2c(c1)C(=O)c1ccccc1C2=O (stereo not given) | inconclusive [activator, partial curve] |
| O=C(Nc1ccsn1)c1ccc(Cl)cc1Cl | inconclusive [activator, partial curve] |
| Clc1ccc(-c2nnc(-c3ccc(Br)o3)o2)c(Cl)c1 | inconclusive [activator, single point] |
| Cc1ccc2c3c([nH]c2c1C)-c1nonc1CC3 | inconclusive [activator, partial curve] |
| COc1ccccc1N1CCN(C2=Nc3cccc4cccc2c34)CC1 | inconclusive [activator, partial curve] |
| CCCc1cc2c(=O)c(-c3ccc4c(c3)OCCO4)coc2cc1OS(C)(=O)=O | active: 3.16 µM |
| CN(C)CC#CCCCCCCC#CCN(C)C | inconclusive [activator, single point] |
| Cc1ccc(-c2cc(C(=O)N3CCN(c4ncccn4)CC3)c3ccccc3n2)cc1 | inconclusive [activator, partial curve] |
| O=[N+]([O-])c1ccc(Cl)c(S(=O)(=O)Nc2cccc(-c3ccc(N4CCOCC4)nn3)c2)c1 | inconclusive [activator, partial curve] |

| Structure (SMILES) | Potency |
| --- | --- |
| COc1cccc(CNC(=O)c2cc(C3CC3)nc3c2cnn3C(C)C)c1 | inconclusive [activator, single point] |
| COC(=O)c1ccc(NC(=O)CCN2C(=O)C3CC=CCC3C2=O)cc1 (stereo not given) | inactive |
| CC(C)CNC(=S)NNC(=O)c1csc2c1CCCC2 | inconclusive [activator, partial curve] |
| O=C(CSc1ccccn1)c1ccc(F)cc1 | inconclusive [activator, partial curve] |
| c1ccc2sc(Nc3nc4cc5c(cc4s3)OCO5)nc2c1 | active: 1 µM |
| CN(C)/N=C/C=C1\CCC/C(=C/c2cccs2)C1=O | active: 3.16 µM |
| O=[N+]([O-])c1ccc2oc(-c3cccc(O)c3)nc2c1 | active: 3.16 µM |
| Cc1cc(C)cc(NC(=O)CSc2nccn2Cc2ccco2)c1 | inactive |
| COc1ccc(-c2c(=O)n(OCc3ccccn3)c3ccccc3[n+]2[O-])cc1OC | inactive |
| CCS(=O)(=O)n1nc(-c2ccccc2)nc1SCc1ccccc1 | inconclusive [activator, partial curve] |
| Clc1ccc2nc(CSc3nc4ccccc4o3)cn2c1 | active: 1 µM |
| Cc1ccc(Cn2ccc(NC(=O)c3nn(C)cc3Cl)n2)cc1 | inconclusive [activator, partial curve] |
| O=C(O)c1cccc(NC(=O)c2ccc(N3C(=O)c4ccc(C(=O)Nc5cccc(C(=O)O)c5)cc4C3=O)cc2)c1 | inconclusive [activator, single point] |
| Cc1cc(C)cc(C(=O)Nc2ccc(N3CCCC3)cc2)c1 | active: 1 µM |
| COc1ccc(NC(=O)C#Cc2ccccc2)cc1 | inconclusive [activator, partial curve] |
| C[C@@H](NC(=O)c1nc[nH]c1C(=O)NC1CCN(C(=O)OC(C)(C)C)CC1)c1ccccc1 | inactive |
| CCOC(=O)CN(C)C(=O)CCc1nnc(-c2ccc(-c3ccccc3)cc2)o1 | inactive |
| CCCOc1cccc(C(=O)N/N=C/c2coc3ccccc3c2=O)c1 | inactive |
| Cc1cc2ccccn2c1C(=O)Nc1ccc(Cl)cc1 | inconclusive [activator, full curve, poor fit] |
| O=C(O)C1CCC(c2ccc(-c3ccccc3)cc2)CC1 (stereo not given) | inconclusive [activator, single point] |
| Cc1cc(C)c2c(N)c(C(=O)Nc3ccccc3Br)sc2n1 | inconclusive [activator, partial curve] |
| c1ccc(-c2ccc(SCc3cccnc3)nn2)nc1 | inconclusive [activator, single point] |
| CCOc1ccc(-c2nc(-c3ccccc3C)no2)cc1 | active: 0.447 µM |
| Cc1cccc2nc(CSc3ccccc3C(=O)O)cn12 | inconclusive [activator, partial curve] |
| O=C(Nc1ccccc1C(=O)O)c1ccc2ccccc2n1 | inconclusive [activator, partial curve] |

| Structure (SMILES) | Potency |
| --- | --- |
| Cc1ccn2cc(-c3nonc3C)cc2c1 | inconclusive [activator, single point] |
| CC1CCCN(C(=S)Nc2ccc(Nc3ccccc3)cc2)C1 (stereo not given) | active: 3.55 µM |
| COc1ccc(OCc2cc(C(=O)N(C)Cc3cnccn3)no2)c(Cl)c1 | inconclusive [activator, partial curve] |
| CCC(C)NC(=O)c1ccc(C)c(NC(=O)C2=C(C)OCCS2)c1 (stereo not given) | inconclusive [activator, single point] |
| O=C(NC1CC1)c1cc2cc3ccccc3nc2s1 | active: 3.55 µM |
| Cc1c(NC(=S)NC(NC(=O)C(C)C)C(Cl)(Cl)Cl)c(=O)n(-c2ccccc2)n1C (stereo not given) | inactive |
| COC(=O)c1cc2c(ccn2-c2ccc(F)cc2)n1CC(=O)OC(C)C | inconclusive [activator, single point] |
| Cc1ccc(-c2nc3cc(N)ccc3o2)cc1 | active: 0.447 µM |
| CCOC(=O)c1sc(=NC(=O)c2ccco2)n(C)c1C | inconclusive [activator, single point] |
| O=C(Nc1nc2ccccc2[nH]1)c1ccc(Br)o1 | inconclusive [activator, single point] |
| COc1cccc(-c2noc(-c3ccc(Cl)nc3)n2)c1 | inconclusive [activator, single point] |
| COc1ccc2nc(SCC(=O)O)nc(C)c2c1 | inactive |
| COc1ccc(N2CCN(C(=O)CSc3nc4c(c(=O)n(C)c(=O)n4C)n3C(C)C)CC2)cc1 | inactive |
| CC(C)c1ccc(NC(=S)NNC(=O)c2cccs2)cc1 | inconclusive [activator, partial curve] |
| COc1ccc(Cc2nc(-c3ccccn3)no2)cc1 | inconclusive [activator, single point] |
| CCOc1ccccc1N1CCN(CC(=O)Nc2nnc(CC)s2)CC1 | inactive |
| COc1ccc(-c2cc(=O)c3ccccc3o2)cc1 | active: 2 µM |
| c1c2c(cc3sc(N4CCCCC4)nc13)OCCO2 | active: 0.355 µM |
| O=C(Nc1ccc2c(c1)OCO2)Nc1ccc2c(c1)OCO2 | active: 1.78 µM |
| COc1ccc(NC(=O)c2c(N)no[n+]2[O-])cc1 | inconclusive [activator, partial curve] |
| COc1ccc(-c2nnc(SCC(=O)N3CCCC3)o2)cc1 | inconclusive [activator, partial curve] |
| CCN1CCN(Cc2ccc(NC(=O)Nc3ccccc3OC)cc2)CC1 | inconclusive [activator, partial curve] |
| CCN(CC)c1ccc(-c2nc3cnccn3c2NC2CCCC2)cc1 | inactive |
| Cc1ccc(NC(=O)CCc2c(C)nn(-c3ccc(N4CCCCC4)nn3)c2C)cc1F | active: 3.98 µM |
| COc1cccc(NC(=O)COC(=O)c2c(F)cccc2Cl)c1 | inconclusive [activator, single point] |
